Source: publication PMC4336329 (PLoS ONE, 2015)
Out of some 310,000 compounds screened, about 2,200 (0.71%) showed an effect of 50% or more. The effect is printed as a negative number. The list shows a part of the results.

These compounds were tested against human ether-à-go-go-related gene (hERG) potassium channel (human, UniProt Q12809) (assay: primary screen, population patch clamp on CHO cells stably expressing hERG).
Sequence of human ether-à-go-go-related gene (hERG) potassium channel (Q12809 whole entry, looked up): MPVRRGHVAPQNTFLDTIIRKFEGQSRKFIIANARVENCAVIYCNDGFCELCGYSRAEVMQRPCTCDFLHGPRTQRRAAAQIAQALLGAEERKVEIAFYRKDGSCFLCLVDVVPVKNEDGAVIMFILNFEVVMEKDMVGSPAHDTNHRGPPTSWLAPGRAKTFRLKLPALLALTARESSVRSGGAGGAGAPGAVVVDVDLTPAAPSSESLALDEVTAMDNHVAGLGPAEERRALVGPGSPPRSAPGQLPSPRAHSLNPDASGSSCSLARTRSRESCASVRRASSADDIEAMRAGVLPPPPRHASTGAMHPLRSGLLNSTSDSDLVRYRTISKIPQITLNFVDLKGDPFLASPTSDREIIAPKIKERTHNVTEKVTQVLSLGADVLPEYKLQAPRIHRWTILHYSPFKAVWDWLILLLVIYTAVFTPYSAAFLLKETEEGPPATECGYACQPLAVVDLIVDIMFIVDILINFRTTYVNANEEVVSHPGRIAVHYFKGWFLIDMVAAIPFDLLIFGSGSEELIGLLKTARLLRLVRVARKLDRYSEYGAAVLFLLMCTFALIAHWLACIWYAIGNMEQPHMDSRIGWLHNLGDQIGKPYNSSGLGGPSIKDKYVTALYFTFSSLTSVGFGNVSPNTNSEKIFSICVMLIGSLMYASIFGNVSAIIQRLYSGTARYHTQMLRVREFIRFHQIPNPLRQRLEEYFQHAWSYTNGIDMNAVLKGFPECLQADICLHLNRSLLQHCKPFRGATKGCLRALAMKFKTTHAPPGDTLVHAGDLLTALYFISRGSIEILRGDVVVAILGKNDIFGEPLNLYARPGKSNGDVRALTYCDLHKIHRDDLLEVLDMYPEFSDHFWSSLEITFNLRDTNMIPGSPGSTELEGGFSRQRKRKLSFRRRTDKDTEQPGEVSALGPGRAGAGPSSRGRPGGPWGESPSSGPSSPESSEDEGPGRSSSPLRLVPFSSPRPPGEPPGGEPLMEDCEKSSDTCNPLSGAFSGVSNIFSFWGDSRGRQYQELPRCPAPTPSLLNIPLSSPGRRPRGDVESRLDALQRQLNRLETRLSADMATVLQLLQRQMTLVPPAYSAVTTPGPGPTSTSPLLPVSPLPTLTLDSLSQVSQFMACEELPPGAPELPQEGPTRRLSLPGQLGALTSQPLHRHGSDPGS

SMILES | hERG current change (%, negative = inhibition) at 1uM
CC(=O)Nc1ccc(/C=N/NC(=O)CCN2CCN(c3ccccc3)CC2)cc1 | 5.44%
CC(C)(C)C(=O)CN1C(=O)NC(c2ccccc2)(c2ccccc2)C1=O | 8.75%
CCOC(=O)C1=C(C)NC(=O)NC1c1ccc(Br)o1 (stereo not drawn) | 11.2%
CCN1C(=O)C2C(c3cccc(F)c3)NC(C)(C(=O)OC)C2C1=O (stereo not drawn) | 15.8%
COc1ccc(COC(=O)C2CCN(S(=O)(=O)c3ccc(C)cc3)CC2)cc1 | 13.7%
COc1ccccc1N1CCN(CC(=O)Nc2nc(C)c(C(=O)N(C)C)s2)CC1 | 12.9%
O=C(c1cc(Cl)ccc1Cl)N1CCN(Cc2ccccc2)CC1 | 14.1%
CC(c1ccccc1)C1CC(=O)N(c2cc(Cl)ccn2)C1=O (stereo not drawn) | 14.2%
CCc1cc(=O)oc2c(C)c(OCC(=O)N3C[C@H]4C[C@@H](C3)c3cccc(=O)n3C4)ccc12 | 10.8%
CCN(C(=O)CSc1nc2ccccc2o1)C1CCS(=O)(=O)C1 (stereo not drawn) | 6.16%
CCOC(=O)c1c(NC(=O)COc2ccccc2OCC)sc2c1CC(C)(C)NC2(C)C | 21%
Cc1ccc(CNC(=O)C(C)OC(=O)c2ccco2)cc1 (stereo not drawn) | 1.22%
CCOC(=O)/C(C#N)=C/c1cccn1-c1ccc(Cl)cc1 | 3.64%
CCn1c2ccccc2c2cc(CN3CCN(S(=O)(=O)CC)CC3)ccc21.O=C(O)C(=O)O | 7.34%
O=C(C1CC1)N1N=C(c2ccccc2)CC1(O)C(F)(F)C(F)(F)F (stereo not drawn) | 10.8%
CCCCCCCC(=O)NC(Nc1ccc(S(N)(=O)=O)cc1)C(Cl)(Cl)Cl (stereo not drawn) | 8.06%
Cc1cccc(-n2c(-c3ccncc3)n[nH]c2=S)c1C | 13.5%
COc1cc(-n2c(=S)[nH]c3ccccc3c2=O)c(Cl)cc1Cl | 9.08%
CS(=O)(=O)N1CCN(Cc2ccc(C(F)(F)F)cc2)CC1.O=C(O)C(=O)O | 12.6%
Cc1cc(C)c(-n2c(O)c(/C=N/N3CCCCC3c3cccnc3)c(=O)[nH]c2=O)c(C)c1 (stereo not drawn) | 13.4%
COCc1cc(/C=N\NC(=O)COc2ccccc2)ccc1OC | 7.07%
NC(=O)CN(Cc1ccccc1)S(=O)(=O)c1ccc2c(c1)OCCO2 | 15.8%
O=C(CCNS(=O)(=O)c1cccc2nonc12)NCCc1ccc(Cl)cc1 | 3.01%
Cc1sc(NC(=O)c2cc3ccccc3oc2=O)c(C(=O)OC(C)C)c1-c1ccccc1 | 4.54%
